From PubChem BioAssay AID1508642 (National Center for Advancing Translational Sciences (NCATS), 2021) come the findings set out here.

Among all 43,000 compounds or so, about 200 (0.47%) were called active. About 12% were inconclusive and are not listed. Calls follow the shape of the dose curve; as a rule, active = well fitted cell-killing curve with a large enough effect; inconclusive = small, poorly fitted or top-dose-only effect, or effect the other way; inactive = flat fitted curve, though single readings scatter. The list shows a part of the results.
% is scaled to controls: 0 for no effect and ±100 for the full control effect.

This experiment in a line: Cell viability qHTS assay in S16 Pmp22-F2sN cells. Also: nearly all actives have a fitted effect of over 65% in size. Conditions: S16 Pmp22-F2sN Schwann cells (luciferase reporters placed in the Pmp22 gene) viability, CellTiter-Glo, 24 h; series mostly up to 57.5 µM; activity change, negative = cytotoxicity: at the top concentration. A digest of the protocol: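 CellTiter-Glo counter-screen, qHTS, 1536-well. Cells: S16(c9) Pmp22-F2sN, 500-1,000/well in DMEM + 10% FBS. Cpd 23 nL pin transfer, 24 h, 37C/5% CO2. Read: luminescence, CCD imager.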
On the technique in general: Quantitative high-throughput screening tests each substance at several concentrations.
On to `CCc1sc(Nc2cccc(Cl)c2)nc1-c1cc2cccc(OC)c2oc1=O`, for which the “activity change, negative = cytotoxicity” value is inactive: -1.18%.
To `COc1cccc(-n2c(SCC(=O)c3ccccc3)nc3c([nH]c4ccccc43)c2=O)c1` belongs inactive: 29.6%; to `O=c1oc2cc(O)ccc2cc1-c1nc(-c2ccc(Cl)c(Cl)c2)cs1`, inactive: 3.13%.
To `CCCn1c(COc2cccc(C)c2)nc2ccccc21` belongs inactive: -0.363%; to `Cc1ccc(S(=O)(=O)C(CNC(=O)COc2ccccc2)c2cccs2)cc1` (stereo not drawn), inactive: 21.3%; to `CCCCNc1nc2c(-c3cccc(C)c3)nnn2c2ccccc12`, inactive: -1.14%.
Consider `COc1cc(C(=O)N2CCNC(=O)C2CC(=O)Nc2ccc(C)c(C)c2)cc(OC)c1OC` (stereo not drawn), for which the “activity change, negative = cytotoxicity” value was inactive: 19.1%.
For the compound `Cc1ccccc1-c1nnc(SCC(=O)N(C)c2ccccc2)o1`, the “activity change, negative = cytotoxicity” value is inactive: 2.94%.
To `COc1ccc2c(c1)c1c(c(=O)n(-c3ccccc3C)c(=O)n1CC(N)=O)n2C` belongs inactive: 9.26%; to `CCCN(CCC)C(=O)Cn1c(=O)n(CCCCCC(=O)Nc2ccccc2)c(=O)c2sccc21`, inactive: 8.76%; to `COC(=O)c1ccc(NC(=O)Cn2ccn3nc(-c4ccc(OC)cc4)cc3c2=O)cc1`, inactive: -0.472%.
To `Cc1ccc(CNC(=O)CCc2c(C)nc3c(-c4ccc(F)cc4)c(C)nn3c2C)cc1` belongs inactive: 2.25%; to `Cc1cccc(OCC(=O)Nc2cccc(C(=O)OCc3cc(=O)n4nc(C(C)C)sc4n3)c2)c1`, inactive: 1.36%; to `Cc1ccc(/C=C/c2onc(C)c2S(=O)(=O)N2CCC(C(=O)Nc3ccc(OC(F)(F)F)cc3)CC2)cc1`, inactive: -2.01%.
To `O=C(NCC(c1cccnc1)N1CCc2ccccc2C1)C(=O)Nc1ccccc1F` (stereo not drawn) belongs inactive: -28.6%; to `CCN(C(=O)CCS(=O)(=O)c1ccc2c(c1)CCN2C(C)=O)c1cccc(C(F)(F)F)c1`, inactive: 14.2%.
Consider `O=C(Nc1ccc(-c2nc3ccccc3o2)c(O)c1)c1cc(Cl)ccc1Cl`, for which the “activity change, negative = cytotoxicity” value is inactive: -17%.
To `O=C(/C=C\c1ccc2c(c1)OCO2)NC1CC(=O)N(c2ccccc2)C1` (stereo not drawn) belongs inactive: 8.88%.
To `CSc1ccc(CNC(=O)Cn2c(-c3cccs3)cc3cc(F)ccc32)cc1` belongs inactive: -3.03%.
Take `O=C(Cn1nc(Cc2ccncc2)c2ccccc2c1=O)Nc1cccc(C(F)(F)F)c1`: the “activity change, negative = cytotoxicity” value was inactive: -21.4%.
To `CNC(=O)c1c(NC(=O)c2cc(=O)c3cc(C)c(C)cc3o2)sc2c1CCCC2` belongs inactive: -12.7%; to `CCN(CC)CCN(C(=O)c1ccco1)c1nc2c(C)c(C)ccc2s1`, inactive: -12.1%.
To `COc1ccccc1CNC(=O)Cn1c(-c2ccc(F)cc2)cc(C(C)=O)c1C` belongs inactive: 3.47%.
Consider `Cc1ccc(-c2cc(C(F)(F)F)n3nc(-c4cccc(Br)c4)cc3n2)cc1`, for which the “activity change, negative = cytotoxicity” value is inactive: -0.726%.
To `CC(=O)Nc1ccc(NC(=O)CN2C(=O)CC(c3ccco3)Sc3ccccc32)cc1` (stereo not drawn) belongs inactive: -0.693%; to `CCn1c(=O)cc(OCC(=O)N2CCN(c3ccc(C(C)=O)cc3)CC2)c2ccccc21`, inactive: 2.68%.
For `COc1ccc(N2CCN(C(=O)CN3CCSc4ccccc43)CC2)cc1`, the “activity change, negative = cytotoxicity” value was inactive: 8%.
To `CN(C(=O)c1c[nH]c2ccc(S(=O)(=O)Nc3cccc(C(F)(F)F)c3)cc2c1=O)C1CCCCC1` belongs inactive: -4.75%.
To `O=C(NCCc1ccc(Cl)cc1)c1nnc(Cc2ccc(F)cc2)o1` belongs inactive: 2.94%; to `O=C(CCSCc1ccc(Cl)cc1)NCCc1ccccc1`, inactive: -1.56%.
To `CCCCNC(=O)CC1Nc2cc(C)c(C)cc2NC1=O` (stereo not drawn) belongs inactive: -1.11%; to `COc1ccccc1NC(=O)c1nn(C)c2c1CS(=O)(=O)c1ccccc1-2`, inactive: 0.722%; to `CN(C)S(=O)(=O)c1ccc(C(=O)NCCSc2c(-c3ccc(Br)cc3)[nH]c3ccccc23)cc1`, inactive: -29.4%.
`Cc1c(Cl)cccc1N1CCn2c1nc1c2c(=O)n(CC(=O)O)c(=O)n1C`: the “activity change, negative = cytotoxicity” value was inactive: -11.4%.
Turning to `O=C(Cn1cc(SCc2ccc(Br)cc2)c2ccccc21)N1CCCCC1`, the “activity change, negative = cytotoxicity” value is inactive: -27.3%.
To `Cc1ccc(/C=C(\C#N)C(=O)Nc2ccc(Br)cc2)o1` belongs inactive: 3.17%.
To `CCC(Sc1ncc(S(=O)(=O)c2ccc(C)cc2)c(=O)[nH]1)C(=O)Nc1cc(C)ccc1C` (stereo not drawn) belongs inactive: 9.23%; to `CCc1ccc(NC(=O)CN2CCN(C3CCCCC3)C(=O)C2=O)cc1`, inactive: 9.16%; to `Cc1ccc2oc(=O)c(S(=O)(=O)c3ccc(F)cc3)cc2c1`, inactive: 4.39%.
To `CCc1nc2ccc(C(=O)NCc3ccc(N(C)C)cc3)cc2nc1CC` belongs inactive: -27.8%.
For `COc1ccc(NC(=O)c2ccco2)cc1NC(=O)c1ccc(C)c(C)c1`, the “activity change, negative = cytotoxicity” value was inactive: 5.34%.
Take `CCN(C(=O)CSc1nc2ccccc2n1Cc1ccc(C(=O)OC)cc1)c1ccccc1`: the “activity change, negative = cytotoxicity” value is inactive: 0.525%.
To `COc1ccc(CCN2C(=O)NC(NC(=O)c3ccccc3OC)(C(F)(F)F)C2=O)cc1OC` (stereo not drawn) belongs inactive: -0.996%; to `C=C(C)Cn1c(=O)c2c(nc3n2CCN3c2cc(C)cc(C)c2)n(C)c1=O`, inactive: 11.3%; to `COc1ccc(N2CCN(C(=O)C3CCN(Cc4nc(-c5ccc(Cl)cc5)oc4C)CC3)CC2)cc1`, inactive: -1.64%.
To `CN(C)CCNC(=O)CN1N=C(c2ccccc2)CCC1=O` belongs inactive: -1.85%.
To `CCCC(=O)N1CCc2cc(OC)c(OC)cc2C1COc1ccc2c(C)cc(=O)oc2c1` (stereo not drawn) belongs inactive: 1%.
As for `COc1ccc2c(c1)CC(C(=O)NCCN1CCN(c3ccccc3F)CC1)CO2` (stereo not drawn), the “activity change, negative = cytotoxicity” value is inactive: 5.17%.
